# Source: the GPR68 mutational scans of Howard et al. (2025)
# Scores with a large standard error are left out. Not listed are two conditions whose scores span a narrow range. Read del as a deletion of the residues named and ins as an insertion between two positions. For some assays here: The concentration of ogerin is not given here.
# B1: GPR68, Q15743 (parent)
# chain: MGNITADNSSMSCTIDHTIHQTLAPVVYVTVLVVGFPANCLSLYFGYLQIKARNELGVYLCNLTVADLFYICSLPFWLQYVLQHDNWSHGDLSCQVCGILLYENIYISVGFLCCISVDRYLAVAHPFRFHQFRTLKAAVGVSVVIWAKELLTSIYFLMHEEVIEDENQHRVCFEHYPIQAWQRAINYYRFLVGFLFPICLLLASYQGILRAVRRSHGTQKSRKDQIQRLVLSTVVIFLACFLPYHVLLLVRSVWEASCDFAKGVFNAYHFSLLLTSFNCVADPVLYCFVSETTHRDLARLRGACLAFLTCSRTGRAREAYPLGAPEASGKSGAQGEEPELLTKLHPAFQTPNSPGSGGFPTGRLA
# Assays:
# [1] = variants of: B1; experiment: cAMP reporter score (Enrich2 score, wild type = 0); higher = more signal; HEK293T, FACS bins
# [2] = variants of: B1; experiment: surface expression score (Enrich2 score, wild type = 0); higher = more signal; HEK293T, FACS bins
Variant,cAMP reporter score ([1]; pH 5.5),"cAMP reporter score ([1]; pH 6.5, modulator: ogerin)",surface expression score [2],cAMP reporter score ([1]; pH 6),"cAMP reporter score ([1]; pH 6, modulator: ogerin)"
N278R,-1.84,-1.39,0.859,–,–
N278E,-0.532,-1.07,–,-1.92,-1.43
N278M,-1.05,-0.997,-1.87,-0.898,-0.827
N278L,-0.987,-0.349,-1.63,-0.274,-0.696
N278I,-1.12,-1.34,-0.564,-1.54,-1.79
N278K,-1.56,-1.79,1.2,-0.852,-2.35
N278V,-1.07,-0.968,0.197,-1.38,-1.65
N278H,-1.48,-1.18,0.934,-0.722,-1.38
N278W,-0.732,-1.37,-2.33,-0.642,-1.88
N278F,-1.85,-0.91,-2.31,–,-0.564
N278Y,-2.27,-1.76,-1.15,-1.23,-1.28
N278D,-2.16,-1.14,-2.31,-1.31,-1.95
N278P,-0.196,-0.16,-0.532,0.139,-0.52
V280del,-1.37,-0.672,-3.2,-0.183,-1.65
D282L,-0.654,-1.19,1.7,-1.21,-1.39
D282C,0.194,-0.795,2.32,-0.13,-0.506
D282Y,-0.782,-2.2,–,-0.498,-0.822
D282H,-1.29,-1.21,1.47,-1.02,-1.08
D282E,-1.61,-1.44,-0.524,-0.886,-1.75
D282I,-1.6,-1.26,1.13,-0.99,-1.54
D282P,-1.51,-0.007,2.12,-0.298,-1.12

Variant,cAMP reporter score ([1]; pH 5.5),"cAMP reporter score ([1]; pH 6.5, modulator: ogerin)",surface expression score [2],cAMP reporter score ([1]; pH 6),"cAMP reporter score ([1]; pH 6, modulator: ogerin)"
D282V,-0.999,-1.26,1.53,-0.336,-1.61
D282W,-0.632,-0.785,2.65,-0.145,-0.51
D282N,-0.422,-0.36,–,–,–
D282Q,-1.28,-0.908,1.63,-0.541,-1.59
D282M,-1.02,-1.02,1.43,-0.593,-1.05
D282A,-0.76,-0.755,1.82,-0.449,-1.16
D282G,-1.22,-0.935,0.863,-0.564,-0.947
D282T,0.892,-0.136,3.7,0.407,0.319
D282S,-0.559,0.074,1.66,0.237,-0.023
D282F,-1.17,-1.24,1.46,-0.644,-1.6
D282R,-0.9,-1.69,0.458,-0.724,-0.73
D282K,-1.08,-0.2,2.87,-0.393,-1.25
V284del,-1.49,-0.534,-2.7,-1.32,-1.19
P283del,-1.81,-0.755,-2.78,-0.817,-1.91
S290del,-1.76,-1.3,0.313,-0.848,-1.39
V289_S290insGSG,-2.09,-0.747,0.067,-0.74,-1.82
N278_C279insGSG,-1.32,-1.02,-2.63,-0.594,-1.52
N278_C279insG,-1.53,-1.45,-2.82,-0.927,-2.04
N278del,-1.22,-0.989,-2.17,-0.784,-1.47
F288I,0.622,1.1,-1.94,–,0.986
F288M,1.05,1.16,0.325,–,1.21

Variant,cAMP reporter score ([1]; pH 5.5),"cAMP reporter score ([1]; pH 6.5, modulator: ogerin)",surface expression score [2],cAMP reporter score ([1]; pH 6),"cAMP reporter score ([1]; pH 6, modulator: ogerin)"
F288T,-2.1,-1.57,-1.69,-1.1,-0.333
F288H,-0.658,-0.792,-1.38,0.175,-1.02
F288A,0.799,0.165,–,2.01,0.406
F288S,-0.236,-0.979,-1.27,0.22,-1.14
F288R,-0.662,-0.187,-1.6,-0.317,-0.628
F288Q,-0.614,-0.406,–,-1.2,-1.67
F288D,-0.969,-1.21,-2.72,-0.999,-1.66
F288L,0.511,3.47,-0.93,2.74,0.595
F288K,-0.327,-0.567,-1.7,-0.91,-1.01
F288E,-0.979,-0.778,-1.99,-1.65,-1.62
F288G,0.404,-0.775,-2.35,-0.44,-0.358
F288V,0.844,-0.056,-1.91,0.014,0.209
F288W,-0.362,-0.589,-0.167,–,-1.3
F288Y,-1.24,-1.25,-1.23,-0.907,-1.78
F288N,-1.33,-1.25,-1.89,-0.424,-1.3
F288C,1.2,-0.162,–,-0.341,0.327
V284_Y286del,-0.842,-0.742,-2.35,-0.691,-0.965
F288_V289del,-0.632,-1.21,-1.54,0.716,-1.29
T292_T293del,-1.28,-0.501,0.653,-0.947,-1.85
C279del,-1.19,-1.21,-2.82,-0.748,-1.25
